Data as given in PMC4336329 (PLoS ONE, 2015).
In all, about 310,000 compounds went through this assay and about 2,200 (0.71%) showed an effect of 50% or more. The effect is printed as a negative number. The list shows a part of the results.

Target: human ether-à-go-go-related gene (hERG) potassium channel (human, UniProt Q12809)
Assay: primary screen, population patch clamp on CHO cells stably expressing hERG

Chain of human ether-à-go-go-related gene (hERG) potassium channel (Q12809 whole entry, looked up): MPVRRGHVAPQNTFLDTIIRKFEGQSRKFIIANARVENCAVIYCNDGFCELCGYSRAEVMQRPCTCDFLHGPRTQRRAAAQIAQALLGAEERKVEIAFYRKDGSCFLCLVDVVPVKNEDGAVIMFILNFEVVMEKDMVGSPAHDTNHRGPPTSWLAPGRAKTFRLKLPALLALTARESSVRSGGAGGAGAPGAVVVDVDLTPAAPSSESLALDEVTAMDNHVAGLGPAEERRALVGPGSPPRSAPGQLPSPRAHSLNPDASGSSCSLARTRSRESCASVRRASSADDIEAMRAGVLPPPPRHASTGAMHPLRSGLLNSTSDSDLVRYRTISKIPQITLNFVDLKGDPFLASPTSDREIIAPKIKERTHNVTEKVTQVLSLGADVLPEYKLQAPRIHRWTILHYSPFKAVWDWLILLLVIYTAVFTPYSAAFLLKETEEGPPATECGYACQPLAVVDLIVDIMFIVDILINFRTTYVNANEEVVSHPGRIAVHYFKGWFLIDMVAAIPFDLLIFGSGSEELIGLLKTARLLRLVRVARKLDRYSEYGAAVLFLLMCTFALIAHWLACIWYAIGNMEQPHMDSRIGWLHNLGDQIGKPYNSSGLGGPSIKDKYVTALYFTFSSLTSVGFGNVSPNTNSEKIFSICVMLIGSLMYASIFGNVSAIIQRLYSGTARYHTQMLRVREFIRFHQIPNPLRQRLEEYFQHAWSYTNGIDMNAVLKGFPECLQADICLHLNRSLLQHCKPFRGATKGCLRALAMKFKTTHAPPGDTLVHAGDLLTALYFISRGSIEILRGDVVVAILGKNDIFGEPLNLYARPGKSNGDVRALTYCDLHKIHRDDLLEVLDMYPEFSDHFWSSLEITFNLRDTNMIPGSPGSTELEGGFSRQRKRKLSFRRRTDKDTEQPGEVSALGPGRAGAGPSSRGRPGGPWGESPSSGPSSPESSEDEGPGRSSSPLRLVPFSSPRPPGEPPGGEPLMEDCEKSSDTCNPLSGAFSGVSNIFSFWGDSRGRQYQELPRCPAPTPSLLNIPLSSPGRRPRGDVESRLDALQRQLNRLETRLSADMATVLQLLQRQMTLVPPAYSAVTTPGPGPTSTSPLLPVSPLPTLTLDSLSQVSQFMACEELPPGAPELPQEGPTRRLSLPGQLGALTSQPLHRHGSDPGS

Row | SMILES | hERG current change (%, negative = inhibition) at 1uM [%]
1 | Cc1cc(-c2ccc(C)c(S(=O)(=O)N3CCN(C(=O)c4ccco4)CC3)c2)on1 | -4.76
2 | COc1ccc(C(C)=O)cc1CN1C(=O)NC2(CCCCC2)C1=O | 10.3
3 | CN(C)C(CNC(=S)Nc1cccc(Cl)c1)c1ccccc1 (stereo not drawn) | 4.46
4 | COC(=O)/C(=C\C(=O)c1ccc([N+](=O)[O-])cc1)Nc1ccc(OC)cc1 | 14.4
5 | O=C1C2C3C=CC(CC3)C2C(=O)N1c1ccc2c(c1)OCO2 (stereo not drawn) | 12.6
6 | CCN1CCN(c2nc3ccccn3c(=O)c2C=O)CC1 | 2.22
7 | COc1cc(NC(=O)C2C3C=CC(C3)C2C(=O)O)ccc1NC(=O)c1ccccc1 (stereo not drawn) | 15.2
8 | CCCCCOc1ccc(Br)cc1/C(C)=N/NC1=NCCN1 | -3.01
9 | Cc1nn(-c2ccccc2)c(Cl)c1/C=N/NC(=O)c1cccc(S(=O)(=O)N2CCCC2)c1 | 25.5
10 | O=C(c1ccccc1)N1CCN(c2ccc([N+](=O)[O-])c(NCc3ccco3)c2)CC1 | 3.03
11 | Br.COc1ccc(C(=O)Cn2c(NCCO)nc3ccccc32)cc1 | 4.51
12 | N#CCCCCn1ccc(NC(=O)c2ccc(Cl)cc2O)n1 | 13.7
13 | CN1CCC2(CC1)C1CN(C)CC=C1C(C#N)=C(N)C2(C#N)C#N.O.[OH-] (stereo not drawn) | 13.2
14 | O=C(Nc1cccc2ccccc12)N1CCN(Cc2ccccc2)CC1 | 5.63
15 | COC(=O)/C=C1/S/C(=N/N=C/c2ccco2)NC1=O | 17.1
16 | Cc1ccc(Cl)cc1NC(=O)C1CC(=O)N(C(C)C)C1 (stereo not drawn) | 11.5
17 | Cc1c(OCc2ccccc2)cccc1OCc1ccccc1 | 16.6
18 | Cc1cc(C)nc(SCCCNCc2ccc(Br)cc2)n1.Cl | 0.685
19 | Cc1ccc(S(=O)(=O)NCC2CCC(C(=O)NCc3cccs3)CC2)cc1 (stereo not drawn) | 16.3
20 | Cc1ccc(N(C)S(=O)(=O)c2cccc(C(=O)NCCCN3CCCC3=O)c2)cc1 | 6.58
21 | Cc1ccc(CNC(=O)c2ccccc2-n2cnnn2)cc1 | 12.3
22 | O=C1CCC(C(=O)N2CCC(CO)(Cc3ccc(Cl)cc3)CC2)=NN1 | 2.9

Row | SMILES | hERG current change (%, negative = inhibition) at 1uM [%]
23 | CCCCOC(=O)Nc1nnc(/C=C/c2ccc(OC)cc2)s1 | 8.95
24 | COC(=O)C1(CO)NC(c2ccc(C)cc2)C2C(=O)N(c3ccccc3)C(=O)C21 (stereo not drawn) | 8.82
25 | COc1ccc(CC(=O)OCC(=O)N2N=C(c3ccccc3)CC2c2ccc(OC)cc2)cc1 (stereo not drawn) | 8.65
26 | CN(CCO)c1ncnc2c1sc1nc(N3CCOCC3)c3c(c12)CCC3 | 3.68
27 | CCCn1c(SCC(=O)Nc2ccc(NC(C)=O)cc2)nc2c1c(=O)n(C)c(=O)n2C | 1.36
28 | COC(=O)c1c(NC(=O)c2cccnc2)sc(C)c1C | -4.63
29 | Cc1cc(NC(=O)CN2CCCC(C)C2)no1.O=C(O)C(=O)O (stereo not drawn) | 9.92
30 | O=C(Nc1ccc(N2CCOCC2)cc1)c1ccc(Br)o1 | 10.1
31 | Cc1ccc(NC2=C(Cl)C(=O)N(C3CCCCC3)C2=O)cc1 | 17.2
32 | CN(C)CCCN=Cc1c(O)n(Cc2ccc3c(c2)OCO3)c(=O)c2ccccc12 | -3.18
33 | COc1ccc(C)cc1NC(=O)c1ccc2c(=O)n3c(nc2c1)CCCCC3 | 5.61
34 | CO/N=C/c1ccc(Sc2ccccc2N)c([N+](=O)[O-])c1 | 3.17
35 | COc1ccc(Cl)cc1NC(=O)CN(C)CC(=O)Nc1ccccc1-c1ccccc1 | 7.14
36 | O=C(O)c1ccc(S(=O)(=O)N2CCOCC2)o1 | 15.7
37 | Cc1ccc(S(=O)(=O)n2nc(OC(=O)C3CCCCC3)cc2N)cc1 | -1.51
38 | O=C(c1ccc(-c2ccccc2)cc1)c1ccc([N+](=O)[O-])cc1 | 11.5
39 | CNc1ccc(S(=O)(=O)NCC(=O)NCCCc2ccccc2)cc1[N+](=O)[O-] | 9.74
40 | CCCc1cc(C(=O)Nc2sc(C(C)=O)c(C)c2C(=O)OCC)no1 | 0.0946
41 | CC(=O)c1cccc(NC(=O)N2CCCC2C(=O)Nc2ccccc2C)c1 (stereo not drawn) | 0.19
42 | Cc1cc(C(=O)NNC(=O)/C=C/c2ccccc2Cl)c(C)o1 | 9.59
43 | COCC(=O)N1CCC(Oc2ccc(C(=O)N(C)C3CCCCC3)cc2)CC1 | 13.7
44 | O=C(CN1CCN(Cc2ccccc2)CC1)Nc1ccccc1 | 9.31

Row | SMILES | hERG current change (%, negative = inhibition) at 1uM [%]
45 | Cc1ccc(CCN2CC(C(=O)NCc3cccnc3)CC2=O)cc1 (stereo not drawn) | 6.73
46 | CN(C)c1nc(SCC(=O)Nc2ccccc2)nc(N2CCOCC2)n1 | 13.9
47 | O=C(NC1CCCC1)C(=O)N(Cc1cccnc1)C(C(=O)NC1CCCC1)c1ccco1 (stereo not drawn) | 3.81
48 | C#CCn1cc(/C=N/NC(=O)c2cc3ccccc3o2)c2ccccc21 | 15.5
49 | COc1ccc(NC(=O)N2CCn3c2nc2ccccc23)cc1 | -5.98
50 | COc1cc(C2c3[nH]c4ccccc4c3C[C@@H]3C(=O)N(Cc4ccco4)CC(=O)N23)cc(OC)c1OC (stereo partly drawn) | 3.78
51 | COc1cccc(NC(=O)C2C3C=CC4(O3)C2C(=O)N(CCCN2CCCC(C)C2)C4C(=O)NC2CCCCC2C)c1 (stereo not drawn) | 16.9
52 | Cc1c(C(=O)/C=C/N(C)C)nnn1-c1ccc(Cl)c(Cl)c1 | 4.58
53 | COc1ccc(-c2n[nH]c(=S)n2/N=C/C=C\c2ccccc2OC)cc1 | 21.1
54 | Cc1cc(C(=O)COC(=O)CCCN2C(=O)c3ccccc3C2=O)c(C)n1C | 5.18
55 | Cn1c(=O)[nH]c(=O)c2c1nc(NCCCn1ccnc1)n2Cc1cccc(Br)c1 | -2.32
56 | COc1cccc(NS(=O)(=O)c2cc(C)sc2C)c1 | 13.2
57 | CCc1cccc2c(=O)c(C(=O)N3CCOCC3)c[nH]c12 | -1.82
58 | Cc1occc1-c1n[nH]c(=S)n1-c1ccccc1 | 11.2
59 | C[C@H](NS(=O)(=O)c1ccc(Cl)cc1)C(=O)OCC(=O)NC(=O)Nc1ccc2c(c1)OCCO2 | 9.01
60 | O=C(c1cn(Cc2ccccc2)nc1-c1cccnc1)N1CCN(Cc2c(F)cccc2Cl)CC1 | 4.63
61 | O=C(CCCCCNC(=O)c1ccccc1)N/N=C/c1ccc(O)cc1O | 3.22
62 | CCCCCCCSc1cc(OC)c(CCN(C)C)cc1OC.O=C(O)/C=C\C(=O)O | -5.92
63 | CC1=CC(C)(C)n2c(O)c(N=NC(N)=S)c3cccc1c32 | 8.08
64 | OCC1(CC2CCCCO2)CCN(C/C=C/c2ccccc2)CC1 (stereo not drawn) | -2.99
65 | Cc1cc(=O)n(-c2ccccc2)n1-c1ccccc1 | -0.718
66 | COc1ccccc1Nc1nnc(SCC(=O)Nc2cc(C)on2)s1 | 1.86

Row | SMILES | hERG current change (%, negative = inhibition) at 1uM [%]
67 | CCOc1ccc(S(=O)(=O)NCc2ccco2)c2ccccc12 | -3.63
68 | N=C1/C(=C/c2ccc(-c3cccc(C(=O)O)c3)o2)C(=O)N=C2SC(CC(=O)N3CCOCC3)=NN12 | 12.8
69 | CCCCCCCC1(C)NC(=O)N(c2ccccc2)N1 (stereo not drawn) | 10.1
70 | CCCCCCCCCC(=O)NNC(=O)c1c(O)c2ccccc2n(CCC)c1=O | 11.1
71 | COCCCNC(=O)CCn1c(=O)c2ccccc2n(CC(=O)NCCC2=CCCCC2)c1=O | 17.3
72 | Cl.Oc1ccc(Nc2ncnc3c2oc2ccccc23)cc1 | 9.49
73 | COc1cc2c(cc1OC)C(COc1ccc(F)cc1)NCC2 (stereo not drawn) | -2.56
74 | COc1ccc(-c2nnn(CC(=O)N3CCN(c4ccccc4OC)CC3)n2)cc1 | 7.71
75 | COc1ccc(OC)c(/C=N/NC(=O)c2ccc(Cn3cc([N+](=O)[O-])cn3)o2)c1 | 4.33
76 | O=C(Nc1cccc(C(=O)N2CCOCC2)c1)c1cncc(Br)c1 | 9.67
77 | O=C(CN(Cc1ccccc1Cl)C(=O)c1csnn1)NCc1ccc(F)cc1 | -0.0793
78 | CCOC(=O)c1ccc(-[n+]2c(-c3ccccc3)cc(-c3ccccc3)cc2-c2ccccc2)cc1.[O-][Cl+3]([O-])([O-])[O-] | 8.22
79 | Cc1ccc(C)c(N2CCN(C(=O)Cc3cn(C)c4ccccc34)CC2)c1 | 9.64
80 | O=C(Nc1ccc(N2CCOCC2)c2nonc12)C1CCCC1 | 1.61
81 | CC(=O)Nc1sc2c(c1C#N)CCC(C)C2 (stereo not drawn) | 11.7
82 | COc1cccc(C2NC(=O)CCC2[N+](=O)[O-])c1OC (stereo not drawn) | 10
83 | Cc1nn2c(=O)cc(CSc3ccccc3NC(=O)c3ccccc3F)nc2s1 | 15.2
84 | CCOC(=O)C(=O)NN=C(c1ccccc1)c1ccccc1 | 12.2
85 | CCCn1c(O)c(N=NC(=O)c2ccco2)c2ccccc21 | 4.93
86 | COc1ccc(CCNC(=O)c2cc([N+](=O)[O-])cc([N+](=O)[O-])c2)cc1OC | 14.4
87 | O=C(O)CSCC(=O)Nc1ccc(Br)c(C(F)(F)F)c1 | 12.2
